# Reference: PubChem BioAssay AID662 (National Center for Advancing Translational Sciences (NCATS), 2007)
# Where “and” joins values, the source holds several entries; their conditions need not be identical. Identical values can stand only once. Among all 71,000 compounds or so, about 1,800 (2.5%) were called active. Inconclusive results, whose numbers are uncertain, are shown with a selection of clear calls. The call rests on the fitted dose curve; in most records, active means well fitted activation curve with a large enough effect in the signal ratio, with a control signal flat (not every such curve was filed as active); inconclusive means small, poorly fitted or top-dose-only effect, or effect the other way, or a change in a side signal; inactive means flat fitted curve, though single readings scatter; the % refers to the signal ratio. Potencies of inconclusive entries are doubtful fits and often do not repeat.
# Assay: Cell signaling CRE-BLA (Fsk stim); on activity change, negative = inhibition: % of control where 0% means no effect
# Details: CHO CRE-bla reporter (cAMP response element driving beta-lactamase), forskolin EC10, beta-lactamase ratio; activity change, negative = inhibition: at 38.2 µM (top of the series) unless noted
# Summary of the method: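 Forskolin analogue NKH 477 at EC10 stimulated CRE-driven beta-lactamase in CHO cells alongside compound dilution series. Beta-lactamase was measured with CCF4, excitation 405 nm, emission ratio 460/530 nm.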
# Potency means the concentration at half of the fitted maximal effect; tags describe the fitted curve by direction and shape.
Compound,"activity change, negative = inhibition",Potency
O=c1c(-c2ccccc2)nc2cnc(Oc3cccc(Cl)c3)nc2n1C[C@H]1CCCO1,inactive,–
CCOc1ccc(-c2nnn(CC(=O)N3CCN(c4ccc(OC)cc4)CC3)n2)cc1OCC,–,"inconclusive: 20 µM [rising, partial curve]"
Cc1cccc(OCC(=O)Nc2ccc(N3CCCC3)cc2)c1C,–,"inconclusive: 0.0251 µM [rising, partial curve, poor fit]"
Cc1cccc(NC(=O)Nc2cccc(C#N)c2)n1,inconclusive: -29.4%,–
COC(=O)CSc1nc(C2CC2)cc(C(F)(F)F)c1C#N,inactive,–
COc1cccc(Nc2ncc3ncc(=O)n(Cc4cccs4)c3n2)c1,–,"inconclusive: 3.16 µM [falling, single point]"
O=C(Nc1ccc2c3c(cccc13)CC2)c1ccco1,inconclusive: -3.67%,–
CC1(C)CC(=O)C2=C(C1)N(CCN1CCOCC1)C1=C(C(=O)CC(C)(C)C1)C2c1ccc(Cl)cc1,–,"inconclusive: 1.58 µM [rising, full curve]"
O=C(NCc1ccco1)C(c1ccc(F)cc1)N(Cc1cccnc1)C(=O)Cn1nnc2ccccc21 (centres undefined),–,"inconclusive: 0.501 µM [falling, single point]"
CCN(CC)S(=O)(=O)c1ccc(NC(=O)COc2c(OC)cccc2OC)cc1,–,"inconclusive: 10 µM [rising, partial curve]"
O=C(Nc1nncs1)c1ccccc1Br,inactive,–
Cc1ccc(-c2nnc3c4ccccc4c(C)nn23)cc1S(=O)(=O)N1CCN(C)CC1,–,"inconclusive: 1.58 µM [rising, full curve, poor fit]"
CCNCCNC(=O)c1c(O)c2cccc3c2n(c1=O)CCC3,inconclusive: 17.1%,–
CCCCOC(=O)C1=C(C)Nc2ncnn2C1c1ccc(OC)c(OC)c1 (centres undefined),–,"inconclusive: 12.6 µM [rising, single point]"
COC(=O)C1=C(C)OC(N)=C(C#N)C1c1ccccc1 (centres undefined),inactive,–
O=C(NC1CCCCCC1)c1cccc(N2CCCC2=O)c1,–,"inconclusive: 0.0158 µM [falling, full curve, poor fit]"
COc1cc(OC)c(C(=O)Oc2ccc3c(c2)OCO3)cc1OC,–,"inconclusive: 12.6 µM [rising, single point]"
CCOC(=O)/C=C/S(=O)(=O)c1ccc(NC(C)=O)cc1,inconclusive: -17.8% [cytotoxic],–
COC(=O)c1cc(Cc2ccc(N)c(C(=O)OC)c2)ccc1N,–,"inconclusive: 10 µM [rising, single point]"
CC1Cc2nc(SCC(=O)Nc3ccc4c(c3)OCCO4)n(C)c(=O)c2S1 (centres undefined),inactive,–
O=C1C2C3C=CC(C3)C2C(=O)N1CCCO (centres undefined),–,"inconclusive: 12.6 µM [rising, single point]"
N[C@H](C(=O)O)c1ccc(C(=O)O)c(O)c1,inconclusive: -12.8%,–
CCOc1ccc(C(=O)NCCn2cc(SCC(=O)Nc3cc(C)on3)c3ccccc32)cc1,inconclusive: -11.8%,–
COCCN1Cc2cccc(C(=O)NCc3ccccc3OC)c2C1=O,–,"inconclusive: 12.6 µM [rising, single point]"
O=c1cc(-c2ccc(O)c(O)c2)oc2cccc(O)c12,inconclusive: -5.34%,–
CC1CCN(C(=O)CSc2nnc(CN3CCOCC3)n2-c2ccccc2)CC1,–,"inconclusive: 0.02 µM [rising, full curve, poor fit]"
COc1ccc2c3c(ccc2c1)N[C@H](C(=O)O)CC3,inactive: 9.28% [at 7.6 µM],–

Compound,"activity change, negative = inhibition",Potency
Cc1ccccc1-c1ccc2ncnc(N3CCNCC3)c2c1,inconclusive: 13.9%,–
O=C(O)c1cc(=O)c2ccccc2[nH]1,inconclusive: -1.92% and inconclusive: -7.94%,–
CCCc1nnc(NC(=O)CCC(=O)N2CCCCC2CC)s1 (centres undefined),inactive,–
COc1ccccc1-c1cc(NCc2cccs2)ncn1,inconclusive: 20.2%,–
O=C(NCCNC[C@@H](O)COc1ccc(O)cc1)N1CCOCC1,inactive,–
Cc1nc(SCC(=O)Nc2cc(C)on2)c2c(C)c(C)sc2n1,–,active: 0.316 µM
COc1ccc(NC(=O)CSc2nc3ccccc3c(=O)n2CCNC(C)=O)cc1,–,"inconclusive: 15.8 µM [rising, single point]"
CCOc1ccc(/C(O)=C2/C(=O)C(=O)N(CCOCCO)C2c2ccc(F)cc2)cc1 (centres undefined),inconclusive: 20.2%,–
O=C(CCOc1ccccc1)Nc1ccc(S(=O)(=O)N2CCCC2)cc1,–,"inconclusive: 25.1 µM [rising, single point]"
CC1CCCC(C)N1C(=O)CN1C(=O)C(C)(C)Oc2ccc(C(=O)NC3CCCCC3)cc21 (centres undefined),–,"inconclusive: 3.16 µM [falling, partial curve]"
CSc1cnn(-c2ccccc2)c(=O)c1SC,inconclusive: 22.6%,–
Cc1cc(O)c(-c2n[nH]c3c2C(c2cccc(O)c2)N(Cc2cccnc2)C3=O)cc1Cl (centres undefined),inactive,–
Cc1cc(C)n(C(=O)c2cc3ccccc3c(=O)o2)n1,inconclusive: -4.17%,–
Cc1ccc(C(=O)O)cc1,inactive,–
O=c1cnc2cnc(Oc3ccccc3)nc2n1C[C@H]1CCCO1,inactive,–
CCOc1ccc(N(CC(=O)NCc2cccs2)S(=O)(=O)c2c(C)noc2C)cc1,inactive,–
Nn1c(SC/C=C/c2ccccc2)nnc1-c1ccccn1,inactive,–
Cc1ccc2c(c1)cc(CN(Cc1ccc3c(c1)OCO3)S(=O)(=O)c1ccccc1)c1nnnn12,inactive,–
COc1ccc(-n2nnnc2SCC(=O)N2CCCC2)cc1OC,–,"inconclusive: 10 µM [rising, partial curve]"
CCn1c(=O)cc(SCC(=O)NCCCN2CCN(c3ccccc3F)CC2)c2ccccc21,–,"inconclusive: 12.6 µM [falling, single point]"
CCOC(=O)c1c(C)c(C(=O)NC2CCCCCC2)c(C)n1C,inactive,–
Cc1cc2n(n1)C(c1ccc3c(c1)OCO3)Nc1c(C)cccc1-2 (centres undefined),inactive,–
COc1ccc(OC)c(S(=O)(=O)n2ccnc2)c1,inactive,–
OC[C@@H]1O[C@@H](N2CCN([C@@H]3O[C@@H](CO)[C@@H](O)[C@H](O)[C@H]3O)CC2)[C@@H](O)[C@H](O)[C@H]1O,inactive: 3.18% [at 7.6 µM],–
Cc1ccc(C2=[N+]([O-])C3(CCCCC/C3=N\O)N(O)C2(C)C)o1 (centres undefined),inconclusive: 3.9% [at 7.6 µM],–
CCn1c(=O)c(C(=O)NCCc2ccccc2)c(O)c2ccccc21,–,"inconclusive: 10 µM [rising, partial curve]"
CC(=O)Nc1ccc(-c2nn3c(C)nnc3s2)cc1C,inactive,–

Compound,"activity change, negative = inhibition",Potency
Cc1cc(C)c2c(n1)nn1c(N3CCN(Cc4ccccc4)CC3)cc(C)nc21,inconclusive: -11.9%,–
Cc1cc(CNC(=O)[C@H]2C[C@@H]2[C@H](NP(=O)(c2ccccc2)c2ccccc2)c2ccccc2)nn1C,inactive,–
COC(=O)CN(c1ccccc1F)S(=O)(=O)c1ccccc1,inconclusive: 18.5% [at 7.6 µM],–
Cc1cc(C)cc(NC(=O)CN(C)S(=O)(=O)c2cnc[nH]2)c1,inconclusive: 7.68%,–
Cc1ccccc1N1C(=O)C(Cl)=C(N2CCN(c3ccccc3)CC2)C1=O,inconclusive: 1.13% [cytotoxic],–
c1ccc(-n2ncc(-c3nn[nH]n3)n2)cc1,inactive,–
O=C(Cc1cccs1)N1CCCC(c2nc3c(nnn3Cc3cccc(Cl)c3)c(=O)[nH]2)C1 (centres undefined),–,"inconclusive: 25.1 µM [rising, single point]"
COc1cccc(NC(=O)Nc2cccs2)c1,inactive,–
c1ccc(-c2nc3cc(Oc4ccc5oc(-c6ccccn6)nc5c4)ccc3o2)nc1,–,"inconclusive: 10 µM [rising, single point]"
O=C(CN1CCN(S(=O)(=O)c2ccc(F)cc2)CC1)Nc1ccc2c(c1)OCO2,–,"inconclusive: 3.16 µM [rising, single point]"
Cn1c(=O)[nH]c(=O)c2c1nc(OC(=O)c1ccccc1)n2CC(O)COc1ccccc1 (centres undefined),inactive,–
CC1(C)CC(=O)C2=C(C1)N(CCN1CCOCC1)C1=C(C(=O)CC(C)(C)C1)C2c1cccc(F)c1,–,"inconclusive: 12.6 µM [rising, partial curve]"
c1cncc(-c2nccc(-n3ccnc3)n2)c1,–,"inconclusive: 12.6 µM [rising, partial curve]"
CC(=O)N1CCC2(CC1)CCN(c1ccc(-c3ccccc3)cc1)CC2,inactive,–
COCCn1nnnc1C(c1ccc(OC)c(OC)c1)N1CCN(c2nc3ccccc3s2)CC1 (centres undefined),inconclusive: 20.3%,–
N#CCCS(=O)(=O)c1nnnn1-c1ccccc1,–,"inconclusive: 2.51 µM [falling, full curve]"
Cc1nnc(SCC(=O)NC2CC2)n1CCc1ccccc1,inactive,–
Cc1oc2ccc(OC(=O)N3CCOCC3)cc2c1C(=O)OC(C)C,–,"inconclusive: 10 µM [rising, single point]"
Cc1ccc(C(C(=O)NC2CCCCC2)N(CCC(C)C)C(=O)CNC(=O)c2ccco2)o1 (centres undefined),inactive,–
Cc1ccc(-c2ccc(=O)n(CC(=O)NCCN3CCCCC3C)n2)cc1 (centres undefined),–,"inconclusive: 5.01 µM [falling, partial curve]"
O=C1c2cccc([N+](=O)[O-])c2C(=O)N1c1ncn[nH]1,inactive: -1.7% [at 7.6 µM],–
CCCCCOC(=O)CSc1nnc(-c2ccccc2)c(=O)[nH]1,inconclusive: 12.8%,–
O=S(=O)(Nc1ccc2c(c1)CCC2)c1cccs1,–,"inconclusive: 5.01 µM [rising, single point]"
Cc1cc(Nc2ccc(O)cc2)ccc1N,inactive,–
O=C1CC(N2CCN(C/C=C/c3ccccc3)CC2)C(=O)N1Cc1ccc(N2CCCC2=O)cc1 (centres undefined),inconclusive: 4.5%,–
